The results in this text go back to FireProtDB (doi:10.1016/j.ijbiomac.2019.10.153).

The conditions of this series: Homo sapiens, pH 7.5, 25 °C, Urea, transition: 2, reversible: yes.

As to “Triosephosphate isomerase wild type (no sequence given)”, for the setting “CD”, the denaturant m value was determined as 0.55 kcal/mol/M, the “denaturant midpoint (higher = more stable)” value was found to be 4.81 M and the unfolding free energy is 2.65 kcal/mol. In addition, where the note is “absorbance”, the denaturant m value amounted to 0.56 kcal/mol/M, the “denaturant midpoint (higher = more stable)” value stood at 4.78 M and the unfolding free energy was found to be 2.68 kcal/mol.
